Reference: publication PMC4336329 (PLoS ONE, 2015)
About 2,200 (0.71%) of roughly 310,000 compounds showed an effect of 50% or more. Effects have a minus sign here. The list shows a part of the results.

Target: human ether-à-go-go-related gene (hERG) potassium channel (human, UniProt Q12809)
Experiment: primary screen, population patch clamp on CHO cells stably expressing hERG

Sequence of human ether-à-go-go-related gene (hERG) potassium channel (Q12809 whole entry, looked up): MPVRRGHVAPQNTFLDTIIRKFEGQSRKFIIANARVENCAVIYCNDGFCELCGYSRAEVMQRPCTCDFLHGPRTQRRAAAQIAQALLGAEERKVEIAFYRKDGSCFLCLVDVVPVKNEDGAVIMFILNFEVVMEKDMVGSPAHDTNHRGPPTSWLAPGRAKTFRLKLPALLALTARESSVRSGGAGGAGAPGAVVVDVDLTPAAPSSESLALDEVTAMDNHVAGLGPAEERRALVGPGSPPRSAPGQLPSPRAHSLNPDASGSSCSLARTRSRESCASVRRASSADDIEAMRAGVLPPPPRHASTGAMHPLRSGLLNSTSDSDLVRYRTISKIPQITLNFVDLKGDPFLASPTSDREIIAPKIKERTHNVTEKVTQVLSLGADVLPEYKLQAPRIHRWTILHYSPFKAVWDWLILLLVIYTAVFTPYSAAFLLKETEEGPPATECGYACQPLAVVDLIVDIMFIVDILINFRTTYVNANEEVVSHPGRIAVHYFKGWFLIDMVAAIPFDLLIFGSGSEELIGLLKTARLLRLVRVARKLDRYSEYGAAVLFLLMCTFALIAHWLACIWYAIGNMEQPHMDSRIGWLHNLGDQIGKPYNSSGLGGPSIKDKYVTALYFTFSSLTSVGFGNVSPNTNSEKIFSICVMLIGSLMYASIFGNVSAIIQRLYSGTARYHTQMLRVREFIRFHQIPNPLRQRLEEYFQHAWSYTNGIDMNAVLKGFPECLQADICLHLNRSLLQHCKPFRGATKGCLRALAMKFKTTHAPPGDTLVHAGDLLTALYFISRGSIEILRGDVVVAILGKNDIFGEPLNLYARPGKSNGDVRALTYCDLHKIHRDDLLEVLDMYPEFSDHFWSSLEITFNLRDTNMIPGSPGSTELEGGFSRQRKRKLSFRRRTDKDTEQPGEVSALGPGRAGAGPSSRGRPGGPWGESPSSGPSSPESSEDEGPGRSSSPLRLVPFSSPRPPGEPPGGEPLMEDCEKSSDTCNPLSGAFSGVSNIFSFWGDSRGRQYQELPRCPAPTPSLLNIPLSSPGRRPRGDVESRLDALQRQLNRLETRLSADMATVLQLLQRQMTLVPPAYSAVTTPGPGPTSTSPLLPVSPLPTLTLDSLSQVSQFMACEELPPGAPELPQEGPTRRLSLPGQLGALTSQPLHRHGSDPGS

| Compound | hERG current change (%, negative = inhibition) at 1uM [%] |
| --- | --- |
| CCc1c(O)nc(SCC(=O)Nc2nc3ccccc3s2)n(C2CCCCC2)c1=O | 11.8 |
| CC(=O)N1N=C(c2ccncc2)OC1(Cc1ccccc1)Cc1ccccc1 | -1.64 |
| CCOc1ccc(OCC)c(NC(=O)CN2CCN(c3cccc(C)c3C)CC2)c1.Cl | 9.79 |
| CC1CCN(C(=S)c2cn(Cc3cccc(F)c3)c3ccccc23)CC1 | 13.2 |
| COC(=O)c1sc(N)c(C(=O)OC)c1COC(=O)[C@@H](NS(=O)(=O)c1cccc(Cl)c1)C(C)C | 1.44 |
| COC(=O)[C@@]1(Cc2ccc(F)cc2)[C@H]2c3cc(C(=O)N4CCCC4)n(Cc4ccc(C(F)(F)F)nc4)c3C[C@H]2CN1C(=O)c1ccccc1 | 3.58 |
| CC(C)(C)c1ccc(OCC(O)CN2CCN(c3ccccn3)CC2)cc1.Cl (stereo not drawn) | 8.32 |
| CC(=O)C1=C(C)Nc2ncnn2C1c1ccc(Cl)cc1Cl (stereo not drawn) | 8.71 |
| CN(C(=O)CN(c1ccccc1)S(=O)(=O)c1ccc(F)cc1)C1CCS(=O)(=O)C1 (stereo not drawn) | 3.88 |
| CSc1ncccc1C(=O)Nc1ccc2c(c1)OCO2 | 5.57 |
| CCOn1c(SC(C)C)nc2ccccc2c1=O | 16.9 |
| COc1ccc(CNC(=O)C(OC(=O)c2nsc(Cl)c2Cl)C(C)C)cc1 (stereo not drawn) | 0.641 |
| CC(=O)c1ccc(NC(=O)CS(=O)(=O)c2cn(CC(=O)N3CCOCC3)c3ccccc23)cc1 | -5.39 |
| Cc1nc(C(=O)NNC(=O)c2ccc(Cl)cc2)cs1 | 1.04 |
| Cc1ccc(-c2nc(CS(=O)(=O)CC(=O)NCCN3CCOCC3)c(C)o2)cc1 | 8.63 |
| O=C1c2oc3ccc(F)cc3c(=O)c2C(c2ccc(F)cc2)N1CCCN1CCOCC1 (stereo not drawn) | -3.74 |
| CCOc1ccc(NC(=O)c2ccc(F)cc2F)cc1 | 15.9 |
| CC(/C=N/NC(=O)Cn1nccc1C)=C\c1ccc(C(C)C)cc1 | 12.1 |
| COc1cc2[nH]c(=O)c(C(=O)NCCCN3CCCCC3)c(O)c2cc1OC.Cl | 0.0656 |
| COc1ccc(OC)c(NC(=O)COC(=O)CNC(=O)c2ccc(OC)c(OC)c2)c1 | -17 |
| Cc1ccnc(NS(=O)(=O)c2ccc3ccccc3c2)n1 | 16 |
| COc1ccc(CCN2C(=NC(=O)CCC(=O)O)SC3CS(=O)(=O)CC32)cc1OC (stereo not drawn) | 1.15 |

| Compound | hERG current change (%, negative = inhibition) at 1uM [%] |
| --- | --- |
| Cc1cc(O)ccc1N/C=C/c1onc(C)c1[N+](=O)[O-] | 17.6 |
| FC(F)(F)c1cc(Oc2ccc(Cl)cc2)ncc1-c1nnc(-c2ccc(Cl)cc2)o1 | 12.9 |
| Cc1nc2cc(-c3cccs3)[nH]n2c(=O)c1C | 11.5 |
| COCC(=O)Nc1cccc(Br)c1 | 8.14 |
| C=CCOC(=O)C(=O)/C=C/c1csc2ccccc12 | 17.5 |
| CCCCC(Br)C(=O)Nc1ccc(S(=O)(=O)Nc2cc(C)nc(C)n2)cc1 (stereo not drawn) | 13.5 |
| O=S(=O)(NCc1cn2ccsc2n1)c1cccs1 | 16.3 |
| COc1ccc2c(=O)c3c(=O)n(Cc4ccco4)c(C(C)C)nc3oc2c1 | 7.78 |
| O=S(=O)(c1cccc(-c2nnc(SCc3ccc(Cl)cc3)o2)c1)N1CCCCC1 | 7.67 |
| CCOc1ccc(C=O)cc1CN1CCCCC1.Cl | 0.149 |
| CCC1CN(C(=O)NCc2cccc(OC)c2)c2ccccc2O1 (stereo not drawn) | 9.43 |
| Cn1c(NCc2ccco2)nc2c1c(=O)n(Cc1ccc(Cl)cc1Cl)c(=O)n2C | 8.58 |
| O=C1Cc2ccccc2C(c2c(Cl)cccc2Cl)N1 (stereo not drawn) | 11 |
| COC(=O)Cn1cc([N+](=O)[O-])nc1C | 9.6 |
| COc1ccc(CCC(C)NCc2ccc(F)cc2)cc1 (stereo not drawn) | 13.2 |
| CCN=C1S/C(=C\c2cc(Br)ccc2OCC(=O)OCC)C(=O)N1CC | 3.38 |
| COc1ccc(-n2nnnc2SC(C)C(N)=O)cc1 (stereo not drawn) | 16.9 |
| CCCN(CCC)CCCNC(=S)Nc1ccc2nc(N3CCN(CC)CC3)cc(C)c2c1 | 8.71 |
| NC(=O)C1(N2CCCCC2)CCN(c2nc(-c3ccc(Br)cc3)cs2)CC1 | -3.89 |
| COc1cccc(CCN2CCC(CNS(=O)(=O)c3cc(-c4cc(C)no4)ccc3C)CC2)c1 | -20.1 |
| Cc1ccc(NC(=S)N(CCCN(C)C)Cc2cc3cc4c(cc3[nH]c2=O)OCO4)cc1 | -4.16 |
| COc1ccc(C)cc1NC(=O)CO/N=C(\N)CC(=O)Nc1ccccc1OC | 8.58 |

| Compound | hERG current change (%, negative = inhibition) at 1uM [%] |
| --- | --- |
| Nn1c(SCC(=O)Nc2ccc3c(c2)OCCO3)nnc1-c1cccnc1 | 7 |
| COc1ccc(CC(=O)N2CCN(C(=O)c3ccco3)CC2)cc1 | 8.56 |
| O=C(O)c1ccc2c(c1)S(=O)(=O)c1cc(Cl)ccc1C2=O | 15.4 |
| O=C(NC(=S)Nc1cccc(C(F)(F)F)c1)c1csnn1 | 23 |
| Cc1ccc(-c2nc3c(c(=O)c4ccccc4n3C)c(=O)n2-c2ccc(F)cc2)cc1 | 8.25 |
| O=C(CNC(=O)C12CC3CC(CC(C3)C1)C2)N1CCN(S(=O)(=O)/C=C/c2ccccc2)CC1 | 16 |
| O=C(/C=C/c1ccccc1)/C=C/c1ccccc1 | 16.3 |
| CCN(CC)C(=O)CSc1nnc(CCN)o1.Cl | 17.4 |
| COc1ccc(N(C(=O)c2cccc([N+](=O)[O-])c2)S(=O)(=O)c2cccs2)cc1 | 10.2 |
| Cc1cc(NC(=O)c2cc([N+](=O)[O-])cc([N+](=O)[O-])c2C)no1 | 6.54 |
| Cc1ccc(CS(=O)(=O)CCC(=O)NCCCN2CCCC2=O)cc1 | 10.7 |
| c1ccc2c(c1)CCCN2Cc1nnnn1CC1CCCO1 (stereo not drawn) | 13.2 |
| O=C(c1ccco1)N1CCN(C(=O)C2c3ccccc3Oc3ccccc32)CC1 | -0.994 |
| Cc1ccc(Nc2nc(Cl)nc(NC(C)(C)C)n2)cc1 | 11.9 |
| O=C(O)C(F)(F)F.O=C1C(Cc2ccccc2)Nc2ncnc(N3CCc4ccccc4C3)c2N1Cc1ccc(Br)cc1 (stereo not drawn) | 14.7 |
| c1ccc(Cn2nnnc2C(c2ccncc2)N2CCOCC2)cc1 (stereo not drawn) | 7.52 |
| COc1ccc(NC(=O)c2cc3c(COC(C)=O)cnc(C)c3oc2=Nc2cccc(C(=O)O)c2)c(OC)c1 | 8.72 |
| CCOC(=O)c1ccc(Oc2nc(SC)nc(N(C)C)n2)cc1 | 7.66 |
| COc1cc(OC)c(OC)cc1CNC(=O)c1ccc(S(=O)(=O)N2CCCCC2)cc1 | 12 |
| C=CCn1c(SCC(=O)N2CCN(c3ccc(F)cc3)CC2)nnc1-c1ccco1 | -67 |
| CN1c2ccccc2C(=O)/C(=C\Nc2ccc(F)cc2F)S1(=O)=O | 1.35 |
| CCCCC1(CC)C(=O)NC(=O)NC1=Nc1ccc(OC)cc1 (stereo not drawn) | 6.44 |

| Compound | hERG current change (%, negative = inhibition) at 1uM [%] |
| --- | --- |
| CCc1ccc(/C=c2\s/c(=C\C(=O)C(C)(C)C)[nH]c2=O)cc1 | 8.54 |
| CCCn1c(SCC(=O)Nc2nnc(C(C)C)s2)nc2c1c(=O)n(C)c(=O)n2C | 12.4 |
| Nc1ccc(-c2nc3ncccc3o2)c(O)c1 | 4.89 |
| O=C1CC(=O)C(n2cncn2)C(c2cccc(Cl)c2)C1 (stereo not drawn) | 15.8 |
| COc1ccc2[nH]c(CN3CCC(n4nccc4NC(=O)C4CC4)CC3)c(C)c2c1 | -33.1 |
| Cc1ccccc1OCC(=O)NC(Cc1c[nH]c2ccccc12)C(=O)O (stereo not drawn) | 14.4 |
| COc1ccccc1N1CCN(C2CCCN(C(=O)c3ccoc3)C2)CC1 (stereo not drawn) | -3.1 |
| Cc1ccc(OCc2nnc(NC(=O)c3ccco3)s2)c(C)c1 | 17.8 |
| O=C1CCS/C(=N\N=C\c2ccc(Cl)cc2Cl)N1 | -2.19 |
| O=C(O)C(=O)O.c1ccc(OCCN2CCOCC2)cc1 | 14.5 |
| COc1ccc(CCNc2nc(C)c(C(C)=O)s2)cc1OC | 11.7 |
| COC(=O)Nc1ccc2c(c1)ncn2C1CCCCC1 | 0.75 |
| Cn1cc(Br)c(C(=O)NC2CCCCCC2)n1 | 6.01 |
| CN(C)S(=O)(=O)N1CCN(c2ccc([N+](=O)[O-])cc2)CC1 | -60.5 |
| O=C(O)c1ccc(-c2nc(-c3ccc(Cl)cc3Cl)cs2)cc1 | 16.7 |
| O=C(COC(=O)CN1C(=O)C2CCCCC2C1=O)NCc1ccc(Cl)cc1Cl (stereo not drawn) | 10.4 |
| O=C(CSc1nc2ccccc2c(=O)n1-c1ccccc1Cl)Nc1cccc(S(=O)(=O)N2CCOCC2)c1 | 11.4 |
| CCN(CC)c1ccc(/C=C2/C(=O)NC(=O)N(Cc3ccco3)C2=O)cc1 | -16.9 |
| Cc1cccc(OP(=O)(Nc2c(C)n(C)n(-c3ccccc3)c2=O)Oc2cccc(C)c2)c1 | 7.63 |
| CCOC(=O)C1=C(C)OC(N)=C(C#N)C1c1ccc(O)c(OC)c1 (stereo not drawn) | 3.42 |
| CCC1CCCCN1C(=O)CCc1nnc(Cc2cc(OC)ccc2OC)o1 (stereo not drawn) | 11.3 |
